{
  "source": "PubChem BioAssay AID485294",
  "about": "(National Center for Advancing Translational Sciences (NCATS), 2010)",
  "note": "In all, about 370,000 compounds went through this assay and about 150 (0.041%) were called active. The shares of active, inactive and inconclusive entries below differ from those in the screen. Calls follow the shape of the dose curve; as a rule, active = well fitted inhibition curve with a large enough effect; inconclusive = small, poorly fitted or top-dose-only effect; inactive = flat fitted curve, though single readings scatter. No potency is given beside an inconclusive call; the fits are too rough. Potency is read from the fitted curve at half-maximal effect; tags tell the direction and shape of the fitted curve.",
  "data": [
    {"target": "Beta-lactamase (Escherichia coli (strain K12)) (UniProt P00811)", "sequence (P00811 whole entry, looked up)": "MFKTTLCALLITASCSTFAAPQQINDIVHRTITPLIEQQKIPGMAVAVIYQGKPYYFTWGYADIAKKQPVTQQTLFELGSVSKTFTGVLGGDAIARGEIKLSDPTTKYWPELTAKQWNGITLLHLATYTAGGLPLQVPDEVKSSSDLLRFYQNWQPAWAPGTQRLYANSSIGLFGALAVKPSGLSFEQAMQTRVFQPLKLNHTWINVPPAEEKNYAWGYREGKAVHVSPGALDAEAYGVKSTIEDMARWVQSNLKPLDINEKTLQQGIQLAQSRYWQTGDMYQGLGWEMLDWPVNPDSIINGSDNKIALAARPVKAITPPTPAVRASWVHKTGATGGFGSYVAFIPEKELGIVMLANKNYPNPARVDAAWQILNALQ", "assay": "qHTS Inhibitors of AmpC Beta-Lactamase (assay with detergent); also: nearly all actives have a fitted effect of over 25% in size;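 as to activity change, negative = inhibition: 0% = no-compound wells and -100% = no-enzyme wells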", "conditions": "AmpC hydrolysis of nitrocefin, absorbance 480 nm, 0.01% Triton; activity change, negative = inhibition: at 114 µM (top of the series)", "procedure,_shortened": "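20 mM phosphate pH 7.0 + 0.01% (detergent screen) or 0.0001% Triton X-100; 5.3 nM AmpC reagent; cpd preinc 15 min RT; nitrocefin (800 uM stock) to start; A480 q20 s × 4 min; Activity was normalised to no-enzyme and no-compound control wells.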", "values": [
      {"smiles": "CCN1CCN(S(=O)(=O)c2ccc(Cl)c(C(=O)NC(C)c3ccccc3Cl)c2)CC1", "note": "(stereo not drawn)", "Potency": "inconclusive [inhibitor, partial curve]"},
      {"smiles": "Cc1occc1-c1nnc(SCC(=O)N2CCN(c3ccccc3F)CC2)n1C", "Potency": "inconclusive [inhibitor, partial curve, poor fit]"},
      {"smiles": "COc1ccc(/C(O)=C2/C(=O)C(=O)N(c3ncccn3)C2c2ccc(OC)cc2)cc1", "note": "(stereo not drawn)", "Potency": "inconclusive [inhibitor, full curve]"},
      {"smiles": "c1ccc(-n2ncc3c(NCCN4CCCCC4)ncnc32)cc1", "Potency": "inconclusive [inhibitor, full curve, poor fit]"},
      {"smiles": "c1ccc(Oc2cccc(OCCCn3cncn3)c2)cc1", "Potency": "inconclusive [inhibitor, full curve, poor fit]"},
      {"smiles": "NC(=O)/C(=N\\OC(=O)c1ccco1)c1nc(-c2ccc(Br)cc2)cs1", "Potency": "inconclusive [inhibitor, full curve, poor fit]"},
      {"smiles": "CCN(CC)CC#CCC(C)(c1ccccc1)c1ccccc1", "Potency": "inconclusive [inhibitor, partial curve, poor fit]"},
      {"smiles": "COc1cccc2c(=O)n(CC(=O)N3CCC(C)CC3)ccc12", "Potency": "inconclusive [inhibitor, partial curve, poor fit]"},
      {"smiles": "CC(C)(C)OC(=O)NCCCC[C@H](NC(=O)c1nc[nH]c1C(=O)N1CCN(C(=O)OC(C)(C)C)CC1)C(=O)OC(C)(C)C", "activity change, negative = inhibition": "inactive: 8.31%"},
      {"smiles": "Cc1nnc(SCC(=O)NC2CCCCCC2)n1N", "Potency": "inconclusive [inhibitor, single point]"},
      {"smiles": "N#CC1=C(N)Oc2cc(N)ccc2C1c1ccccc1Cl", "note": "(stereo not drawn)", "Potency": "inconclusive [inhibitor, full curve, poor fit]"},
      {"smiles": "Nc1ccnn1Cc1ccc(Br)s1", "Potency": "inconclusive [inhibitor, single point]"},
      {"smiles": "CCOC(=O)c1ccc(N2C(=O)CC(N3CCC(Nc4ccc(F)cc4)CC3)C2=O)cc1", "note": "(stereo not drawn)", "Potency": "inconclusive [inhibitor, single point]"},
      {"smiles": "CN(C)C(=S)Nc1ccc(N2CCOCC2)cc1", "activity change, negative = inhibition": "inactive: -4.21%"},
      {"smiles": "Cc1ccc2cccc(OCc3ccc(F)cc3)c2n1", "Potency": "inconclusive [inhibitor, single point]"},
      {"smiles": "O=C(c1ccccc1)c1cc2ccccc2oc1=O", "Potency": "inconclusive [inhibitor, partial curve]"},
      {"smiles": "Brc1ccc(Oc2nsnc2N2CCOCC2)cc1", "Potency": "inconclusive [inhibitor, full curve, poor fit]"},
      {"smiles": "CS(=O)(=O)c1ccc(-c2cn3cc(C(=O)O)ccc3n2)cc1", "Potency": "inconclusive [inhibitor, single point]"},
      {"smiles": "COc1ccc(NC(=S)NC(=O)/C=C/c2ccccc2)cc1", "Potency": "inconclusive [inhibitor, full curve, poor fit]"},
      {"smiles": "COc1ccc(NC(=O)CSCc2cc(=O)n3cc(C)sc3n2)cc1", "activity change, negative = inhibition": "inactive: -6.72%"},
      {"smiles": "O=C(Oc1c(Cl)cc(Cl)c2cccnc12)N1CCOCC1", "Potency": "inconclusive [inhibitor, single point]"},
      {"smiles": "CCN1CCN(C(c2ccc(F)cc2)c2sc3nc(-c4ccco4)nn3c2O)CC1", "note": "(stereo not drawn)", "activity change, negative = inhibition": "inactive: 7.45%"},
      {"smiles": "O=C(CSCc1cnn(-c2ccccc2)c1-n1cccc1)N1CCN(Cc2ccccc2)CC1", "Potency": "inconclusive [inhibitor, full curve]"},
      {"smiles": "NNC(=S)NC1CCCCCCCCCCC1", "activity change, negative = inhibition": "inactive: -2.1%"},
      {"smiles": "COC(=O)C1=C(C)N(Cc2ccccc2)C(=NCc2ccc(OC)cc2)N[C@H]1c1ccccc1", "Potency": "inconclusive [inhibitor, partial curve]"},
      {"smiles": "CCCOc1ccc(CNC(=O)C2CCN(C(=O)N3CCOc4ccccc43)CC2)cc1", "Potency": "inconclusive [inhibitor, partial curve, poor fit]"},
      {"smiles": "COc1cc(C(=O)Nc2ccc(Cl)c([N+](=O)[O-])c2)cc(OC)c1OC", "Potency": "inconclusive [inhibitor, full curve, poor fit]"},
      {"smiles": "Cc1ccc(/C=C/C(=O)Nc2cccc3cccnc23)o1", "Potency": "inconclusive [inhibitor, partial curve]"},
      {"smiles": "CC1(C)CC(=O)C(C(=O)/C=C/c2ccco2)C(=O)C1", "Potency": "inconclusive [inhibitor, partial curve]"},
      {"smiles": "Oc1ccc2ccccc2c1/C=N/n1cnnc1", "Potency": "inconclusive [inhibitor, partial curve, poor fit]"},
      {"smiles": "Cc1ccc(NS(=O)(=O)c2cc(C(=O)NCc3ccccn3)ccc2Cl)cc1C", "activity change, negative = inhibition": "inactive: -2.03%"},
      {"smiles": "COc1ccccc1N1CCN(/N=C/C(Cl)=C/c2ccccc2)CC1", "activity change, negative = inhibition": "inactive: -5.01%"},
      {"smiles": "CCCOc1cccc(C(=O)O)c1", "Potency": "inconclusive [inhibitor, full curve]"},
      {"smiles": "O=[N+]([O-])c1cccc(OCCN2CCC(Cc3ccccc3)CC2)c1", "Potency": "inconclusive [inhibitor, partial curve, poor fit]"},
      {"smiles": "COc1cc(C(=O)OCC(=O)N2CCNC2=O)cc(Cl)c1OC", "Potency": "inconclusive [inhibitor, full curve, poor fit]"},
      {"smiles": "CC(Oc1cccc(Cl)c1)C(=O)N1CCN(c2ncccn2)CC1", "note": "(stereo not drawn)", "Potency": "inconclusive [inhibitor, partial curve, poor fit]"},
      {"smiles": "Cc1ccc(Nc2c(-c3ccc(C)o3)nc3cnccn23)cc1", "activity change, negative = inhibition": "inactive: -16.5%"},
      {"smiles": "Cc1cccc2sc(NC(=O)CSc3nnnn3C)nc12", "Potency": "inconclusive [inhibitor, full curve]"},
      {"smiles": "COc1ccc(C(C)=O)cc1CSc1nnc(Nc2ccc(C)cc2C)s1", "Potency": "inconclusive [inhibitor, single point]"},
      {"smiles": "Cn1c(=O)oc2cc(S(=O)(=O)Nc3ccc(Cl)cc3)ccc21", "Potency": "inconclusive [inhibitor, full curve, poor fit]"},
      {"smiles": "Cc1cccc(C(=O)N=C2SC3CS(=O)(=O)CC3N2c2ccccc2)c1", "note": "(stereo not drawn)", "Potency": "inconclusive [inhibitor, partial curve]"},
      {"smiles": "Cc1cccc(C(C)C)c1NC(=O)c1ccc2c(c1)CCCN2S(C)(=O)=O", "activity change, negative = inhibition": "inactive: 15.1%"},
      {"smiles": "c1cncc(CN=C2Nc3ccccc3CS2)c1", "activity change, negative = inhibition": "inactive: -11.4%"},
      {"smiles": "COc1c(S(=O)(=O)NCCCN2CCOCC2)ccc(Cl)c1Cl", "Potency": "inconclusive [inhibitor, single point]"},
      {"smiles": "COc1ccccc1N1CCN(C(=O)CNS(=O)(=O)c2ccc(Br)s2)CC1", "Potency": "inconclusive [inhibitor, full curve]"},
      {"smiles": "CCOC(=O)N1CCC2(CC1)OC(=O)C(C)=C2C(=O)NCc1ccccc1OC", "activity change, negative = inhibition": "inactive: 16.1%"},
      {"smiles": "COc1ccc2sc(N(CCCN(C)C)C(=O)c3ccc(S(=O)(=O)N4CCCC4)cc3)nc2c1", "Potency": "inconclusive [inhibitor, single point]"},
      {"smiles": "Cc1cc(N=NC(=O)c2ccccc2)ccc1O", "Potency": "inconclusive [inhibitor, full curve, poor fit]"},
      {"smiles": "CCNC(=O)c1cc2ccccc2o1", "Potency": "inconclusive [inhibitor, full curve]"},
      {"smiles": "CN(C)S(=O)(=O)c1cccc(NC(=O)COC(=O)/C=C/c2ccc3c(c2)OCO3)c1", "activity change, negative = inhibition": "inactive: 4.12%"},
      {"smiles": "Cc1ccccc1N(C(=O)c1ccccn1)C(C(=O)NCc1ccccc1)c1cccnc1", "note": "(stereo not drawn)", "Potency": "inconclusive [inhibitor, partial curve]"},
      {"smiles": "Cc1cccc(CCNC(=O)CCS(=O)(=O)c2cc3c(cc2C)NC(=O)CO3)c1", "Potency": "inactive"},
      {"smiles": "Cc1ccc(Nc2nc(C)cc(C)c2C(N)=O)cc1", "Potency": "inconclusive [inhibitor, partial curve, poor fit]"},
      {"smiles": "CN1CCc2c(sc3c2C(=O)NC(c2ccc4c(c2)OCO4)N3)C1", "note": "(stereo not drawn)", "Potency": "inconclusive [inhibitor, single point]"},
      {"smiles": "O=C1NCCN1c1ncc([N+](=O)[O-])s1", "activity change, negative = inhibition": "inactive: -11.6%"},
      {"smiles": "Cc1ccc(-c2nn(C)c(=O)c3ccccc23)cc1CN1CCOCC1", "Potency": "inconclusive [inhibitor, full curve]"},
      {"smiles": "C=CCNC(=O)C(=O)NCC(c1ccc2c(c1)OCO2)N1CCN(c2ccc(F)cc2)CC1", "note": "(stereo not drawn)", "Potency": "inconclusive [inhibitor, full curve, poor fit]"},
      {"smiles": "O=C1NC(=S)N/C1=C/c1cccc2ccccc12", "activity change, negative = inhibition": "inactive: 0.0464%"},
      {"smiles": "Cc1coc2c1c(C)cc1oc(=O)c(CC(=O)NCCCN3CCCC3=O)c(C)c12", "Potency": "inconclusive [inhibitor, single point]"},
      {"smiles": "COCc1cc(Sc2ccc(OC)cc2)nc(-c2ccccc2)n1", "activity change, negative = inhibition": "inactive: -3.68%"},
      {"smiles": "Cc1ccc(NC(=O)CCN2CC(C)OC(C)C2)cc1", "note": "(stereo not drawn)", "Potency": "inconclusive [inhibitor, full curve, poor fit]"},
      {"smiles": "O=C(CCNC(=O)c1ccc(Br)cc1)Nc1ccccc1N1CCOCC1", "Potency": "inconclusive [inhibitor, full curve, poor fit]"},
      {"smiles": "O=C1CCC/C(=N\\NC(=O)c2ccc(CSc3cccc4cccnc34)cc2)C1", "Potency": "inconclusive [inhibitor, full curve, poor fit]"},
      {"smiles": "CC(C)CCn1c(CN2CCN(Cc3ccccc3)CC2)nc2c1c(=O)n(C)c(=O)n2C", "Potency": "inconclusive [inhibitor, full curve, poor fit]"},
      {"smiles": "COC(=O)Cn1cc(/C=C2\\C(=O)NC(=O)N(c3ccccc3)C2=O)c2ccccc21", "Potency": "inconclusive [inhibitor, full curve]"},
      {"smiles": "COc1ccc(NC(=O)Cc2ccccc2F)cc1S(=O)(=O)N1CCCCC1", "activity change, negative = inhibition": "inactive: -3.96%"},
      {"smiles": "C/C(=N\\Nc1nc(C)cc(-c2ccccc2)n1)c1ccc(O)cc1", "Potency": "inconclusive [inhibitor, full curve, poor fit]"},
      {"smiles": "CCn1c(Cc2c(C)[nH]c3ccccc23)nnc1SCC(N)=O", "activity change, negative = inhibition": "inactive: -0.464%"}
    ]}
  ]
}
